Consider 144 sequences from the supplement of paper PMC3724861.

Some of the results follow.

This test has as its system T1, Caupolican (Caup) homeodomain DNA-binding domain.
T1 sequence: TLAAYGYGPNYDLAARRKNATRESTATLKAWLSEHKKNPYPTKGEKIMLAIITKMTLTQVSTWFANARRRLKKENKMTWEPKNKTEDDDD
The test can be described thus: PBM E-score (8-mer, recovered from the published 9-mer minima) (E-score (dimensionless, -0.5 to 0.5)); Drosophila protein; higher = stronger relative binding preference, active = 0.31 or more. The method, boiled down:
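An enrichment score, with higher meaning stronger, expresses relative binding preference for each short DNA word. The protein used was Caup's homeodomain DNA-binding domain (residues 214-303), produced by in vitro transcription and translation and tested at 100 nM on custom-designed protein binding microarrays. The 8-mer values were recovered from published 9-mer scores, each equal to the lower of its two constituent 8-mer scores.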
With CTATCCCA, the “PBM E-score” value is inactive: -0.0284.

Take CACTCGCG: the “PBM E-score” value was inactive: -0.182.

Turning to TATTCACA, the “PBM E-score” value is inactive: 0.123.

Consider CGGGAATC, for which the “PBM E-score” value was inactive: -0.164.

Regarding GCTGGGCC, the “PBM E-score” value is inactive: -0.344.

With CTCGTACA, the “PBM E-score” value was inactive: 0.238.

Consider TAGTTTGA, for which the “PBM E-score” value was inactive: 0.0652.

On to CCTCTTAG, for which the “PBM E-score” value was inactive: -0.0358.

Turning to CTGGTTAA, the “PBM E-score” value is inactive: 0.12.

For the sequence GGAATAAC, the “PBM E-score” value was inactive: 0.0351.

With ATGTGGAA, the “PBM E-score” value is at least 0.149.

As for CCCTCCGC, the “PBM E-score” value is inactive: -0.201.

As to AATACACA, the “PBM E-score” value is active: 0.311.

Consider GGCATCGA, for which the “PBM E-score” value is inactive: -0.119.

With CGGCCCAC, the “PBM E-score” value was inactive: -0.234.

As to AGACGCCG, the “PBM E-score” value is inactive: -0.178.

In the case of GAAGCCGA, the “PBM E-score” value was inactive: -0.0895.

Take TAGGGATA: the “PBM E-score” value is inactive: -0.00992.

Turning to CAACTGAG, the “PBM E-score” value was inactive: 0.0727.

Turning to CGGTCAAC, the “PBM E-score” value was inactive: -0.0213.

Turning to GACAACCA, the “PBM E-score” value is inactive: 0.297.

As for TAGCGCCA, the “PBM E-score” value is inactive: -0.149.

For ACTTCAGA, the “PBM E-score” value is inactive: 0.00584.

Regarding ATGTACTA, the “PBM E-score” value is active: 0.398.

On to ACCTTTAG, for which the “PBM E-score” value was inactive: -0.0647.

For the sequence CCGTGTTA, the “PBM E-score” value was active: 0.321.

ACTAAGGC: the “PBM E-score” value is inactive: -0.121.

Regarding CGTCACTA, the “PBM E-score” value was inactive: 0.0243.

Regarding AGCGGCAG, the “PBM E-score” value is inactive: -0.138.

Consider CCAATCAG, for which the “PBM E-score” value was inactive: -0.0909.

For the sequence AAAGGTCT, the “PBM E-score” value is inactive: -0.0899.

With AGAGTGTA, the “PBM E-score” value was inactive: 0.0977.

As for ATAGAACA, the “PBM E-score” value was inactive: 0.282.

For CCTGTTAA, the “PBM E-score” value was inactive: 0.188.

As for ATCACGCA, the “PBM E-score” value is inactive: 0.069.

For AAAGCGCT, the “PBM E-score” value is inactive: -0.0583.

Turning to TAGAGGAA, the “PBM E-score” value is inactive: -0.0403.

Take ATTTCCCG: the “PBM E-score” value is inactive: 0.0165.

Take ACGCGGAT: the “PBM E-score” value was at least 0.00954.

For the sequence CGTCGGGA, the “PBM E-score” value is inactive: 0.0166.

Turning to CTGGTCGC, the “PBM E-score” value was inactive: -0.106.

Turning to GTAGCGGA, the “PBM E-score” value is inactive: -0.0315.

Take GACGCTGA: the “PBM E-score” value is inactive: -0.126.

In the case of ACGGCCAT, the “PBM E-score” value is inactive: -0.18.

On to GCCCCCGC, for which the “PBM E-score” value was inactive: -0.272.

Turning to CGAGCAAC, the “PBM E-score” value was inactive: -0.00148.

On to TCCATGAA, for which the “PBM E-score” value was at least 0.0658.

Take GGTTACCA: the “PBM E-score” value was inactive: 0.041.

As for AGCAAGCA, the “PBM E-score” value is inactive: -0.0359.

As to AACTGTGT, the “PBM E-score” value was inactive: 0.22.

GCTTGACA: the “PBM E-score” value is inactive: 0.139.

Regarding CTGTTAAG, the “PBM E-score” value was inactive: 0.127.

For CACCGCTA, the “PBM E-score” value is inactive: -0.113.

In the case of ATTGTTAA, the “PBM E-score” value was inactive: 0.21.

Consider CGGCCAAA, for which the “PBM E-score” value was inactive: -0.129.

Consider TCACGTAA, for which the “PBM E-score” value is inactive: 0.0905.

As for GTCGATTA, the “PBM E-score” value is inactive: 0.107.

CACGGCTG: the “PBM E-score” value is inactive: -0.0979.

As to GTAAGGCA, the “PBM E-score” value was at least 0.108.

AGGTCCCG: the “PBM E-score” value was inactive: -0.181.

With GTCCATCA, the “PBM E-score” value is inactive: -0.0212.

Regarding GATCCCGA, the “PBM E-score” value is inactive: -0.159.

Consider ATATGGAG, for which the “PBM E-score” value was inactive: 0.027.

CCCCCGGC: the “PBM E-score” value was inactive: -0.33.

In the case of AGCTGGGG, the “PBM E-score” value is inactive: -0.232.

As for CTGGGAGA, the “PBM E-score” value is inactive: -0.143.

In the case of CAGCCCCC, the “PBM E-score” value is inactive: -0.328.

Take ACCGTACC: the “PBM E-score” value was inactive: -0.0578.

On to GGGATCGA, for which the “PBM E-score” value was inactive: 0.011.

In the case of CGCACCAA, the “PBM E-score” value was inactive: -0.12.

Regarding ACGAATTC, the “PBM E-score” value is inactive: 0.0393.

Take GTACCGAA: the “PBM E-score” value was inactive: 0.0678.

As for CGTCCTCA, the “PBM E-score” value is inactive: -0.105.

For the sequence AAAAACAA, the “PBM E-score” value is inactive: 0.248.

On to GGCTGAGA, for which the “PBM E-score” value is inactive: -0.107.

For the sequence ATGGCGAA, the “PBM E-score” value is at least -0.0267.

As for ATGCAGAG, the “PBM E-score” value was inactive: -0.107.

Regarding CCATGGTC, the “PBM E-score” value is inactive: -0.0618.

Turning to ACCCCCTC, the “PBM E-score” value is inactive: -0.287.

Consider GACAACTC, for which the “PBM E-score” value is inactive: 0.191.

Turning to AATCATTA, the “PBM E-score” value is inactive: 0.147.

For CCTCAGTA, the “PBM E-score” value is inactive: -0.12.

Take GAGGATAC: the “PBM E-score” value was inactive: 0.0175.

As for CCAGTTCA, the “PBM E-score” value was inactive: -0.06.

In the case of TACAGAAA, the “PBM E-score” value was inactive: 0.17.

For CGTAGTCA, the “PBM E-score” value is inactive: 0.0132.

On to CGACCTCC, for which the “PBM E-score” value was inactive: -0.138.

For the sequence ACTTGAAT, the “PBM E-score” value was inactive: 0.143.

ACCAGCCG: the “PBM E-score” value is inactive: -0.125.

CAGGTGGC: the “PBM E-score” value was inactive: -0.104.

On to AGGCTTGA, for which the “PBM E-score” value is inactive: -0.122.

ATCTCAAG: the “PBM E-score” value is inactive: 0.0464.

Take CGACGTGA: the “PBM E-score” value was inactive: 0.0677.

For the sequence AGCTCAAA, the “PBM E-score” value was inactive: -0.0752.

Regarding CGGTCAAA, the “PBM E-score” value was inactive: 0.0311.

For GGAGGAAC, the “PBM E-score” value is inactive: -0.0554.

In the case of ATAAGGCG, the “PBM E-score” value was inactive: -0.112.

As to CGGCACCC, the “PBM E-score” value was inactive: -0.203.

For CCGGTCAA, the “PBM E-score” value is inactive: -0.0503.

Turning to CATCGCGA, the “PBM E-score” value is inactive: 0.0249.

CAAGACTC: the “PBM E-score” value was inactive: 0.0253.

AACAACGG: the “PBM E-score” value is inactive: 0.203.

For ATATACAC, the “PBM E-score” value was active: 0.348.

Take CCTACTTC: the “PBM E-score” value was inactive: -0.0288.

With AAAGGGGT, the “PBM E-score” value was inactive: -0.119.

CTGCATCA: the “PBM E-score” value is inactive: 0.031.

Turning to ATCAGCGC, the “PBM E-score” value was inactive: -0.0347.

On to GCCTCCGA, for which the “PBM E-score” value is inactive: -0.131.

Take AGACACTG: the “PBM E-score” value was inactive: 0.119.

As to CCGCTCAA, the “PBM E-score” value is inactive: -0.19.

For the sequence CGTAGTAC, the “PBM E-score” value is inactive: 0.124.

For the sequence CCTGTGTC, the “PBM E-score” value was inactive: 0.125.

Take AGGGGAAG: the “PBM E-score” value is inactive: -0.073.

Turning to AGTCAATG, the “PBM E-score” value was inactive: 0.0578.

CTAAATAG: the “PBM E-score” value was inactive: 0.0426.

With GATCGGGA, the “PBM E-score” value was inactive: -0.122.

With TGATCGCA, the “PBM E-score” value was at least 0.0769.

As to ACGGTCGG, the “PBM E-score” value is inactive: -0.1.

As for CTAGAAAC, the “PBM E-score” value was inactive: -0.0157.

Consider GGTGCCGA, for which the “PBM E-score” value was inactive: -0.111.

On to AAGAAAGA, for which the “PBM E-score” value was inactive: 0.0126.

With AATGCCCT, the “PBM E-score” value was inactive: -0.111.

Take CCATGTAG: the “PBM E-score” value is inactive: 0.268.

For ATCTGACA, the “PBM E-score” value is inactive: 0.269.

For AGCTCTCG, the “PBM E-score” value was inactive: -0.217.

On to CCCTCAAC, for which the “PBM E-score” value is inactive: -0.204.

In the case of CGATATCG, the “PBM E-score” value was at least 0.133.

As for ACAGAAAC, the “PBM E-score” value is inactive: 0.172.

On to CGTATCTA, for which the “PBM E-score” value was inactive: -0.0339.

With CAGGTAAC, the “PBM E-score” value is inactive: 0.125.

Turning to AGGAGTGC, the “PBM E-score” value is inactive: -0.0928.

GAAACCTC: the “PBM E-score” value was inactive: -0.051.

For the sequence AGATGAGG, the “PBM E-score” value is inactive: -0.179.

On to TCACGACA, for which the “PBM E-score” value is inactive: 0.218.

In the case of ACGACTCG, the “PBM E-score” value was inactive: -0.0644.

AGTAGGCA: the “PBM E-score” value was inactive: 0.004.

With AGTGACAA, the “PBM E-score” value is inactive: 0.255.

In the case of CCTCTCCG, the “PBM E-score” value is inactive: -0.267.

For the sequence CCCAAAGC, the “PBM E-score” value is inactive: -0.199.

Regarding AGTAACCC, the “PBM E-score” value is inactive: -0.00218.

Consider AACTATTG, for which the “PBM E-score” value was inactive: 0.163.

On to AAGCCATT, for which the “PBM E-score” value was inactive: 0.0303.

With TTACGAAA, the “PBM E-score” value is inactive: 0.0668.

In the case of GATACTAC, the “PBM E-score” value was inactive: 0.175.
